Data: PubChem BioAssay AID894 (National Center for Advancing Translational Sciences (NCATS), 2007)
Several values for one entry are separate records, joined by “and”; a condition that tells them apart may be missing. Equal entries are not always repeated. The campaign covered roughly 150,000 compounds. About 6,500 (4.3%) were called active. Inconclusive means that the source gave no clear call. Such entries were picked first, then a sample of the others. The call rests on the fitted dose curve; in most records, active means well fitted inhibition curve with a large enough effect (not every such curve was filed as active); inconclusive means small, poorly fitted or top-dose-only effect, or another doubt; inactive means no such curve, though single readings can be large or run the other way. No potency is given beside an inconclusive call; the fits are too rough.

Biological target: 15-hydroxyprostaglandin dehydrogenase [NAD(+)] (Homo sapiens) (UniProt P15428)
Assay: qHTS Assay for Inhibitors of HPGD (15-Hydroxyprostaglandin Dehydrogenase)
Settings: purified HPGD, NADH fluorescence kinetic, PGE2 substrate; activity change, negative = inhibition: active compounds read low
How it was run: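 NADH formation kinetics: reaction with 30 uM PGE2 and 1 mM NAD+ (final), 20 nM enzyme, Tris-HCl pH 8 with Tween 20, after 15 min compound preincubation at room temperature. Fluorescence change, last versus first of five reads.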
On the % scale 0 is the no-effect control and ±100 the full control effect; potency means the concentration at half of the fitted maximal effect; tags describe the fitted curve by direction and shape.

Chain of UniProt P15428 (P15428 whole entry, looked up): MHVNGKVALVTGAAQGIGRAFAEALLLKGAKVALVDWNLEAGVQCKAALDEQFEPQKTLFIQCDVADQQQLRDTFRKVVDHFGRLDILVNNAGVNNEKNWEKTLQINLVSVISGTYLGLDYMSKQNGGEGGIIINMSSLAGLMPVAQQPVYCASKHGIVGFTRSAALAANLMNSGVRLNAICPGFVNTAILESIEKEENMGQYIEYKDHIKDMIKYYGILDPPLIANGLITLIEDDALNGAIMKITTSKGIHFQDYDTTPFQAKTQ

Question: `COC(=O)c1sccc1NS(=O)(=O)c1ccc(OC)cc1` was tested. Which Potency did it give?
Answer: active: 20 µM

Question: `Cc1ccc(N(CC(=O)N2CC(=O)Nc3ccccc32)S(=O)(=O)c2ccc3c(c2)OCCO3)cc1` was tested. Which activity change, negative = inhibition did it give?
Answer: inactive: -13.7%

Question: Which Potency does the source give for `CSc1cccc(NC(=O)COc2ccccc2)c1` here?
Answer: active: 17.8 µM

Question: Which Potency does the source give for `COc1ccc(NC(=O)c2ccc(-c3ccc(C)c4ccccc34)o2)cc1` here?
Answer: inconclusive [inhibitor, single point]

Question: How did the Potency turn out when `OC[C@@H]1[C@@H](c2ccc(Cl)cc2)C(c2cccc(Cl)c2)=NN1c1ccccc1` was run?
Answer: inconclusive [inhibitor, partial curve]

Question: For `CCOC(=O)c1sc(C)c2c1NC(C)(c1cccs1)NC2=O` (centres undefined), which Potency is on record?
Answer: inconclusive [inhibitor, single point]

Question: With `CCC(=O)/C=C1\Sc2ccc(OC)cc2N1CCO` as the molecule, how does the activity change, negative = inhibition read?
Answer: inactive: -4.19%

Question: `CCCCc1nc(N)c(C#N)c(-c2ccco2)c1CCC` was tested. Which Potency did it give?
Answer: inconclusive [inhibitor, partial curve]

Question: How did the Potency turn out when `CCCCOc1ccc(C(=O)NCc2ccccn2)cc1` was run?
Answer: inconclusive [inhibitor, partial curve]

Question: With `O=C(NCC1CCCC(CNC(=O)N2CCc3ccccc32)C1)N1CCc2ccccc21` (centres undefined) as the molecule, how does the activity change, negative = inhibition read?
Answer: inactive: -18.4%

Question: With `N#Cc1nc(COc2ccccc2F)oc1N1CCCCCC1` as the molecule, how does the Potency read?
Answer: inconclusive [inhibitor, partial curve]

Question: With `O=C(O)CCCCCn1c(SCc2cc(=O)n3ccccc3n2)nc2ccsc2c1=O` as the molecule, how does the Potency read?
Answer: inconclusive [inhibitor, partial curve]

Question: `Cn1cc(CC(=O)Nc2cccc(C#N)c2)c2ccccc21` was tested. Which activity change, negative = inhibition did it give?
Answer: inactive: -7.64%

Question: For `CCS(=O)(=O)CCSc1nc2ccccc2o1`, which activity change, negative = inhibition is on record?
Answer: inactive: -6.83%

Question: With `O=C(NCc1cccs1)c1ccc2c(c1)OCCO2` as the molecule, how does the Potency read?
Answer: active: 25.1 µM

Question: How did the Potency turn out when `S=c1[nH]nc(COc2ccccc2)n1/N=C/c1ccccn1` was run?
Answer: inconclusive [inhibitor, single point]

Question: For `Cc1ccccc1-c1nc(-c2ccc(NC(=O)c3ccc(Br)o3)cc2)no1`, which Potency is on record?
Answer: inconclusive [inhibitor, single point]

Question: Which activity change, negative = inhibition does the source give for `CCOC(=O)c1c(C)nc(SCC(N)=O)c(C#N)c1-c1ccccc1` here?
Answer: inactive: -0.141%

Question: Which Potency does the source give for `O=C(Nc1ncnc2sc3c(c12)CCC3)c1ccco1` here?
Answer: inconclusive [inhibitor, single point]

Question: How did the Potency turn out when `CC(Oc1ccc(Cl)cc1Cl)C(=O)Nc1ccc2oc(-c3ccncc3)nc2c1` (centres undefined) was run?
Answer: inconclusive [inhibitor, partial curve]

Question: Which activity change, negative = inhibition does the source give for `CCCn1c(N)c(C(c2ccc(C(=O)OC)cc2)N2CCN(c3ccccc3)CC2)c(=O)[nH]c1=O` (centres undefined) here?
Answer: inactive: -19.3%

Question: Which activity change, negative = inhibition does the source give for `COc1ccccc1CNS(=O)(=O)c1c(C)[nH]c(=O)[nH]c1=O` here?
Answer: inactive: -0.0175%

Question: `Cc1ccc(C2=NN(Cc3nnc(-c4ccccc4)o3)C(=O)SC2)cc1` was tested. Which Potency did it give?
Answer: active: 11.2 µM

Question: How did the Potency turn out when `COCCNC(=O)c1cc2c3ccccc3n(C)c2s1` was run?
Answer: inconclusive [inhibitor, partial curve]

Question: For `CCOC(=O)c1ccc(Nc2nc(=O)c3cccnc3s2)cc1`, which Potency is on record?
Answer: inconclusive [inhibitor, single point]

Question: How did the activity change, negative = inhibition turn out when `Cn1c(SCC(=O)c2ccccc2)nnc1-c1cccc(N)c1` was run?
Answer: inactive: -8.19%

Question: For `C=CCNc1ncnc2c1cnn2-c1ccc(OC)cc1`, which Potency is on record?
Answer: inconclusive [inhibitor, partial curve]

Question: Which Potency does the source give for `O=C(NCc1cccnc1)c1ccc(COc2ccc3c(c2)CCC3)o1` here?
Answer: inconclusive [inhibitor, partial curve]

Question: Which Potency does the source give for `Cc1ccc(-c2cc(-c3ccccc3)nc(Cl)n2)cc1` here?
Answer: inconclusive [inhibitor, partial curve]

Question: With `O=C(Nc1nc(N2C(=O)c3ccccc3C2=O)n(-c2ccccc2)n1)c1ccccc1` as the molecule, how does the activity change, negative = inhibition read?
Answer: inactive: -16.3%

Question: How did the activity change, negative = inhibition turn out when `CCCc1[nH]n(-c2nc3ccccc3s2)c(=O)c1C=NCC1CCCO1` (centres undefined) was run?
Answer: inactive: -19.7%

Question: For `COc1ccc(S(=O)(=O)Nc2ccc(O)c(Sc3nc4ccccc4s3)c2)cc1`, which Potency is on record?
Answer: active: 25.1 µM

Question: For `CC1(C)CC(=O)c2cnn(-c3nc4ccccc4[nH]3)c2C1`, which Potency is on record?
Answer: inconclusive [inhibitor, single point]

Question: For `Cc1cc(=O)oc2cc(OCC(=O)NCCc3nc4ccccc4[nH]3)ccc12`, which Potency is on record?
Answer: inconclusive [inhibitor, partial curve]

Question: `COC(=O)c1c(C)nn(-c2ccccc2)c1N` was tested. Which Potency did it give?
Answer: inconclusive [inhibitor, partial curve, poor fit]

Question: With `O=c1cc(-c2cccc(O)c2O)oc2ccccc12` as the molecule, how does the Potency read?
Answer: active: 15.8 µM

Question: How did the activity change, negative = inhibition turn out when `COc1ccccc1C(O)(C(=O)NN(C)c1ccccc1)c1ccccc1OC` was run?
Answer: inactive: -1.4%

Question: `OCc1ccc(-c2ccc(-c3ccc(CO)s3)o2)s1` was tested. Which Potency did it give?
Answer: inconclusive [inhibitor, partial curve]

Question: How did the activity change, negative = inhibition turn out when `Cc1ccccc1NC(=O)c1c(F)c(F)c(F)c(F)c1F` was run?
Answer: inactive: -5.65%

Question: `Cc1ccc(NC(=O)c2ccc(-c3nn(C)c(=O)c4ccccc34)cc2)c(C)c1` was tested. Which Potency did it give?
Answer: active: 12.6 µM

Question: Which Potency does the source give for `O=c1c(-c2ccc(O)cc2)coc2cc(O)cc(O)c12` here?
Answer: active: 20 µM and active: 25.1 µM

Question: With `CC(C)CC(=O)Nc1ccc(-c2nc3ccccc3c(=O)[nH]2)cc1` as the molecule, how does the activity change, negative = inhibition read?
Answer: inactive: -25.4%

Question: Which activity change, negative = inhibition does the source give for `CCn1cc(C(=O)Nc2ccc(C)c([N+](=O)[O-])c2)cn1` here?
Answer: inactive: -16.3%

Question: `COc1ccc(S(=O)(=O)N(CC(=O)Nc2cccnc2)c2ccccc2OC)cc1` was tested. Which Potency did it give?
Answer: active: 2.24 µM

Question: For `O=C(Nc1ccccc1)C(=O)c1cn(CC(=O)N2CCCCC2)c2ccccc12`, which Potency is on record?
Answer: inconclusive [inhibitor, partial curve]

Question: For `COc1ccc(-c2noc(C(C)n3nc(C)c([N+](=O)[O-])c3C)n2)cc1OC` (centres undefined), which activity change, negative = inhibition is on record?
Answer: inactive: -11.8%

Question: How did the Potency turn out when `CCc1cc2c(=O)c(-c3nc4ccccc4n3C)c(C(C)C)oc2c(CN2CCN(C)CC2)c1O` was run?
Answer: inconclusive [inhibitor, partial curve]

Question: For `NCCO`, which activity change, negative = inhibition is on record?
Answer: inactive: -7.11%

Question: For `Cc1cc(N2CCCCCC2)nc(-c2ccccc2O)n1`, which Potency is on record?
Answer: inconclusive [inhibitor, single point]

Question: For `CCCC(C(=O)NC1CCCC1)N(C(=O)Cn1nnc(-c2ccc(C)o2)n1)C1CCCC1` (centres undefined), which Potency is on record?
Answer: inconclusive [inhibitor, partial curve]

Question: With `CCc1ccc(NC(=O)CSCCO)cc1` as the molecule, how does the Potency read?
Answer: active: 20 µM

Question: With `CC(=O)NC1=C(NC2CCS(=O)(=O)C2)C(=O)c2ccccc2C1=O` (centres undefined) as the molecule, how does the Potency read?
Answer: active: 11.2 µM

Question: How did the activity change, negative = inhibition turn out when `COc1ccc(-n2c(CNc3ccc(C)cc3)nnc2SCc2ccccc2)cc1` was run?
Answer: inactive: -20.9%

Question: How did the Potency turn out when `CCOc1cccc2oc(-c3ccccc3Cl)cc(=O)c12` was run?
Answer: active: 44.7 µM

Question: Which Potency does the source give for `CN(C)c1nc(-c2ccccc2)nc(-c2ccc(Cl)cc2)c1C#N` here?
Answer: inconclusive [inhibitor, partial curve]

Question: `O=C(Nc1cccc(NC(=O)C2CC2)n1)C1CC1` was tested. Which Potency did it give?
Answer: inconclusive [inhibitor, single point]

Question: How did the activity change, negative = inhibition turn out when `O=C(CN1C(=O)c2cccc3cccc(c23)C1=O)N1CCN(Cc2ccc3c(c2)OCO3)CC1` was run?
Answer: inactive: -22.8%

Question: How did the Potency turn out when `CCOC(=O)C1CCCN(CC(=O)Nc2c(C(=O)OC)[nH]c3ccc(C)cc23)C1` (centres undefined) was run?
Answer: inconclusive [inhibitor, single point]

Question: `O=C(Nc1ccc(S(=O)(=O)C(F)F)cc1)c1cccc(S(=O)(=O)N2CCOCC2)c1` was tested. Which activity change, negative = inhibition did it give?
Answer: inactive: -15.6%

Question: For `COc1ccc(NC(=O)CN2CCN(CC(=O)Nc3ccccc3Cl)CC2)cc1`, which activity change, negative = inhibition is on record?
Answer: inactive: -0.916%

Question: Which Potency does the source give for `COc1cc(-c2cc(C(=O)Nc3ccc(S(=O)(=O)NCc4ccco4)cc3)c3ccccc3n2)cc(OC)c1OC` here?
Answer: inconclusive [inhibitor, partial curve]

Question: Which Potency does the source give for `Cc1nc(NC(=O)c2cc3c(C)nn(-c4ccccc4)c3s2)sc1C(=O)Nc1ccccc1` here?
Answer: inconclusive [inhibitor, partial curve]

Question: `COC(=O)c1[nH]c2ccc(C)cc2c1NS(=O)(=O)c1ccc(F)c(C)c1` was tested. Which Potency did it give?
Answer: inconclusive [inhibitor, partial curve]

Question: Which activity change, negative = inhibition does the source give for `COCCNC(=O)Cn1c(=O)n(Cc2ccco2)c(=O)c2ccccc21` here?
Answer: inactive: -18.7%

Question: With `Cc1nc(C)c(-c2csc(NCc3ccccc3)n2)s1` as the molecule, how does the Potency read?
Answer: inconclusive [inhibitor, partial curve]

Question: `CN(Cc1ccccc1F)c1nc(-c2cccs2)nc2ccccc12` was tested. Which Potency did it give?
Answer: inconclusive [inhibitor, partial curve]

Question: For `CN1CCN(S(=O)(=O)c2ccc3[nH]cc(C(=O)O)c(=O)c3c2)CC1`, which Potency is on record?
Answer: inconclusive [inhibitor, partial curve]

Question: With `NC(=O)c1cnn2c(C(F)(F)F)cc(-c3ccccc3)nc12` as the molecule, how does the Potency read?
Answer: inconclusive [inhibitor, single point]

Question: How did the Potency turn out when `CC(C)CCNC(=O)CCCOc1cc(=O)n(C)c2ccccc12` was run?
Answer: active: 15.8 µM

Question: For `COc1ccccc1N1CCN(C(=O)c2cc(-c3ccco3)on2)CC1`, which activity change, negative = inhibition is on record?
Answer: inactive: 2.44%

Question: With `CCOc1ccc(N2C(=O)c3cccnc3C2Nc2ccc(Cl)cc2)cc1` (centres undefined) as the molecule, how does the activity change, negative = inhibition read?
Answer: inactive: -1.42%

Question: How did the Potency turn out when `Fc1ccc(CNc2nc(-c3ccco3)cc(C(F)(F)F)n2)cc1` was run?
Answer: inconclusive [inhibitor, partial curve]

Question: How did the activity change, negative = inhibition turn out when `Cc1cc(OCC(=O)O/N=C(\N)Cc2cccs2)ccc1Br` was run?
Answer: inactive: 4.32%

Question: `CCCCn1c(SCC(=O)NCCOC)nc2ccc(N3CCOCC3)cc2c1=O` was tested. Which Potency did it give?
Answer: inconclusive [inhibitor, partial curve]
